# Data published in the BET-seq Pho4 binding data (Le et al. 2018).
# The list shows a part of the results. Values were computed here from the reads of four pooled replicates and scatter widely.
# Biological target: T1, Pho4 (S. cerevisiae) (UniProt P07270)
# T1 sequence: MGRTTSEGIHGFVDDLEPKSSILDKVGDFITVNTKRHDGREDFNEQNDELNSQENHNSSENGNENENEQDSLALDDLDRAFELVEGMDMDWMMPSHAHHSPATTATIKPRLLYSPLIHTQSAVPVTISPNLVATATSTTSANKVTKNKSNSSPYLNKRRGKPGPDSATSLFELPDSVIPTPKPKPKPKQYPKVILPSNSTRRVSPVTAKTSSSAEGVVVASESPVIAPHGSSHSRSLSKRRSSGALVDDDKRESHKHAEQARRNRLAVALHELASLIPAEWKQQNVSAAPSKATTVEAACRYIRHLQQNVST
# Assay: relative binding free energy (BET-seq); higher = weaker binding
# Conditions: reference: library average
row,Sequence,relative binding free energy
1,GGAAGCACGTGTTATT,-0.06 kcal/mol
2,CAGTACACGTGTATGG,0.06 kcal/mol
3,GGCTTCACGTGAGTTT,0.4 kcal/mol
4,ATAAGCACGTGTTATG,-0.17 kcal/mol
5,AAGTTCACGTGTGGTG,0.25 kcal/mol
6,GAGTACACGTGGTCTG,0.06 kcal/mol
7,CATGACACGTGGTGGC,0 kcal/mol
8,ATTGTCACGTGGAGTT,0.09 kcal/mol
9,GGGGTCACGTGCCGGC,0.19 kcal/mol
10,TTAGACACGTGGTCAA,0.07 kcal/mol
11,GTGTGCACGTGTCGGA,0.14 kcal/mol
12,AGTAGCACGTGTTCGG,-0.05 kcal/mol
13,GTTGCCACGTGTGGAT,-0.08 kcal/mol
14,TGGTGCACGTGTTACA,-0.21 kcal/mol
15,TTGTGCACGTGTGTAT,-0.01 kcal/mol
16,ATGAGCACGTGATTGA,0.02 kcal/mol
17,GTCGTCACGTGAAAGG,0.39 kcal/mol
18,ATATTCACGTGTAGTC,0.29 kcal/mol
19,AGTGTCACGTGAATCT,0.29 kcal/mol
20,GTAGACACGTGCGAGG,0.05 kcal/mol
21,GATAGCACGTGTCAGG,0.02 kcal/mol
22,ATAGGCACGTGGGGCT,-0.19 kcal/mol
23,CACTACACGTGGGGGG,-0.01 kcal/mol

row,Sequence,relative binding free energy
1,GTAATCACGTGATAGG,0.35 kcal/mol
2,CCATTCACGTGTTGGG,0.25 kcal/mol
3,TTAGACACGTGTTGAG,0.03 kcal/mol
4,CTCATCACGTGTTTGG,0.2 kcal/mol
5,TTTTGCACGTGATAGC,0.09 kcal/mol
6,TGTAGCACGTGGGAGA,-0.06 kcal/mol
7,GGACTCACGTGCGGGT,0.14 kcal/mol
8,TAGAACACGTGTAGTT,0.15 kcal/mol
9,GCCAGCACGTGGAGGG,-0.04 kcal/mol
10,AGTTTCACGTGGTTAG,0.21 kcal/mol
11,GTGGCCACGTGTTATT,0.09 kcal/mol
12,GTTAACACGTGTGGGC,0 kcal/mol
13,TGGGCCACGTGATGGT,0.12 kcal/mol
14,TTCGGCACGTGTATTT,0.01 kcal/mol
15,GGTCGCACGTGGGTAG,-0.1 kcal/mol
16,TTGTGCACGTGGAACG,0.05 kcal/mol
17,ATTTTCACGTGACTGG,0.31 kcal/mol
18,TTATGCACGTGAAGGA,0.22 kcal/mol
19,TGGTTCACGTGAAGTT,0.53 kcal/mol
20,GAGGTCACGTGGTTTT,0.23 kcal/mol
21,TGTCGCACGTGAGCGT,0.08 kcal/mol
22,TTCGCCACGTGTGTAG,0.03 kcal/mol
23,ATGGTCACGTGCAATT,0.1 kcal/mol

row,Sequence,relative binding free energy
1,GCGGGCACGTGCGGCG,-0.19 kcal/mol
2,GCTTTCACGTGTTAGG,0.17 kcal/mol
3,TATCGCACGTGTGGTG,0.01 kcal/mol
4,GATAGCACGTGTAGTT,0.08 kcal/mol
5,GGTTACACGTGTTTTC,0.18 kcal/mol
6,TACGACACGTGGTGGG,0.03 kcal/mol
7,TGGTGCACGTGAAGTG,0.32 kcal/mol
8,TAGGGCACGTGATGGC,0.04 kcal/mol
9,TAACTCACGTGGTGTA,0.06 kcal/mol
10,TTGGACACGTGAGGAG,0.25 kcal/mol
11,TAATGCACGTGGGTAC,-0.24 kcal/mol
12,TTTGCCACGTGCGAGT,-0.04 kcal/mol
13,GGGATCACGTGCTGTA,0.19 kcal/mol
14,AAGGTCACGTGAGTAG,0.33 kcal/mol
15,ATAAGCACGTGTCTGG,-0.06 kcal/mol
16,AATTACACGTGGGGAT,-0.01 kcal/mol
17,GTCTGCACGTGTGGGA,0.09 kcal/mol
18,ATATGCACGTGGGTTG,-0.18 kcal/mol
19,AGTTACACGTGTGTTG,0.09 kcal/mol
20,TGCGGCACGTGTGTAA,-0.11 kcal/mol
21,TTCGTCACGTGGGTCT,-0.03 kcal/mol
22,GTCGTCACGTGGAGGA,0.21 kcal/mol
23,ATAGCCACGTGTGAGT,0.07 kcal/mol

row,Sequence,relative binding free energy
1,GGAGGCACGTGGAGTT,-0.02 kcal/mol
2,TATGGCACGTGTGCAG,-0.15 kcal/mol
3,AATGACACGTGTAAGG,0.13 kcal/mol
4,TGAGTCACGTGGTGCA,0.01 kcal/mol
5,GCAATCACGTGTAGTT,0.27 kcal/mol
6,TCTTTCACGTGGGGTG,0.18 kcal/mol
7,GGGTACACGTGTGGAG,0.17 kcal/mol
8,TTATTCACGTGATTGG,0.3 kcal/mol
9,TTTCGCACGTGAGATG,0.26 kcal/mol
10,AGGGTCACGTGTTAAT,0.23 kcal/mol
11,TGGTTCACGTGATGTT,0.43 kcal/mol
12,GGGGTCACGTGAAGTT,0.43 kcal/mol
13,TTATACACGTGTAAGT,0.17 kcal/mol
14,GGACGCACGTGGTGGA,-0.1 kcal/mol
15,CGTGTCACGTGATGCT,0.18 kcal/mol
16,AATCTCACGTGATGGT,0.26 kcal/mol
17,GAAGACACGTGTCGGG,0.17 kcal/mol
18,TATCTCACGTGTATTT,0.27 kcal/mol
19,ACTTTCACGTGTGGTG,0.33 kcal/mol
20,GTTTCCACGTGTGGGG,0.22 kcal/mol
21,TATGGCACGTGCGTTA,-0.11 kcal/mol
22,AGCGGCACGTGTGTTG,-0.1 kcal/mol
23,TTTATCACGTGGGGAC,0 kcal/mol

row,Sequence,relative binding free energy
1,AAAGTCACGTGGCATG,0.16 kcal/mol
2,TTTTGCACGTGTTCCT,0.02 kcal/mol
3,TTTCGCACGTGCGGGT,-0.02 kcal/mol
4,ACAGGCACGTGAAGTG,0.11 kcal/mol
5,TTACTCACGTGAAGTG,0.24 kcal/mol
6,CGGTGCACGTGGGAGT,-0.21 kcal/mol
7,TAATACACGTGTGTCG,0.03 kcal/mol
8,CTATGCACGTGAATTT,0.43 kcal/mol
9,TGAGTCACGTGTGGTG,0.17 kcal/mol
10,TGAGGCACGTGTGTGT,-0.02 kcal/mol
11,TTGGTCACGTGTGAGG,0.26 kcal/mol
12,AATTTCACGTGAGGTG,0.29 kcal/mol
13,TGCCACACGTGGAGGT,0.09 kcal/mol
14,GGGGGCACGTGGACGC,-0.1 kcal/mol
15,CAAGGCACGTGATAGG,0.04 kcal/mol
16,AGCGGCACGTGTGTGA,0 kcal/mol
17,GAGGTCACGTGTGACT,0.25 kcal/mol
18,GGAGGCACGTGGCCGT,-0.19 kcal/mol
19,TAGGTCACGTGATGGG,0.29 kcal/mol
20,ACTGGCACGTGAGGAA,0.19 kcal/mol
21,TTGGTCACGTGCTTGT,0.08 kcal/mol
22,GTTCGCACGTGTGAGT,0.02 kcal/mol
23,TTTGGCACGTGATAAA,-0.12 kcal/mol
